Source: the supplement of paper PMC10369915
Some of the results follow. No stated cut-off is given here; in the data, active = 3.2 or more and inactive = the rest. The signal is at background level for most entries.

B1: SPTAN1_Y1792_R1794W (peptide)
chain: VGSEDYGWDLT
B2: SPTB_Y474 (peptide)
chain: TDTAAYEERVR
B3: SQOR_Y259 (peptide)
chain: NLTVNYKKNLI
B4: SQSTM1_Y148_V153I (peptide)
chain: SVCPDYDLCSI
B5: SQSTM1_Y383 (peptide)
chain: KEAALYPHLPP
B6: SQSTM1_Y383_A381V (peptide)
chain: KEAVLYPHLPP
B7: SQSTM1_Y383_P387L (peptide)
chain: KEAALYPHLLP
B8: SQSTM1_Y433_T430P (peptide)
chain: LDPIQYSKHPP
B9: SRC_Y232_A237T_YF (peptide)
chain: QQLVAYFSKHT
B10: SRC_Y232_YF (peptide)
chain: QQLVAYFSKHA
B11: SRRM4_Y549 (peptide)
chain: SASRSYSRSRS
B12: SRRT_Y798 (peptide)
chain: QGLMPYGQPRP
B13: SSX7_Y48_L43S (peptide)
chain: SEKISYVYMKR
B14: ST3GAL6_Y306_A311T (peptide)
chain: MNKNAYHNVTT
B15: STAMBP_Y36_R38C (peptide)
chain: IPPRRYFCSGV
B16: STARD8_Y330 (peptide)
chain: WSRAMYPDLGP
B17: STARD8_Y330_R327Q (peptide)
chain: WSQAMYPDLGP
B18: STAT1_Y170 (peptide)
chain: DLQDEYDFKCK

These binders were tested against SHP2 C-SH2 domain E139D (assay: enrichment score (SH2-bound / input frequency) (ratio); bacterial display of known human phosphotyrosine sites (pTyr-Var adds point mutants) read by sequencing; higher = stronger binding; tyrosines were phosphorylated by kinases first). Conditions: peptide library: pTyr-Var.
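Further: displayed peptides selected on beads carrying the immobilized SH2 domain, with library peptides lacking any tyrosine serving as negative controls.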

Enrichment score, inactive:
B1 0.561
B2 0.465
B3 0.569
B4 1.34
B5 0.687
B6 0.916
B7 1.01
B8 0.973
B9 1.85
B10 1.09
B11 0.228
B12 0.772
B13 0.778
B14 0.654
B15 0.504
B16 0.898
B17 0.866
B18 0.791

These binders were tested against SHP2 C-SH2 domain wild-type in the same assay as above. Conditions: peptide library: pTyr-Var.

Enrichment score, inactive:
B1 0.623
B2 0.371
B3 0.636
B4 1.03
B5 0.826
B6 0.801
B7 0.965
B8 0.912
B9 1.77
B10 1.14
B11 0.25
B12 0.637
B13 1.57
B14 0.587
B15 0.381
B16 0.631
B17 0.835
B18 0.613

Each binder was assayed against SHP2 N-SH2 domain L43F in the same assay as above. Conditions: peptide library: pTyr-Var.

Enrichment score, inactive:
B1 0.775
B2 0.298
B3 0.654
B4 1.29
B5 0.766
B6 0.824
B7 1.07
B8 1.12
B9 1.77
B10 0.948
B11 0.306
B12 0.639
B13 0.791
B14 0.502
B15 0.428
B16 0.655
B17 0.915
B18 0.722

What follows are binders tested against SHP2 N-SH2 domain T42A in the same assay as above. Conditions: peptide library: pTyr-Var.

Enrichment score, inactive:
B1 0.519
B2 0.514
B3 0.722
B4 1.07
B5 0.534
B6 0.655
B7 0.845
B8 0.76
B9 1.39
B10 1.06
B11 0.28
B12 0.549
B13 1.2
B14 0.594
B15 0.402
B16 0.585
B17 0.731
B18 0.71

The binders below were run against SHP2 N-SH2 domain T52S in the same assay as above. Conditions: peptide library: pTyr-Var.

Enrichment score, inactive:
B1 0.605
B2 0.5
B3 0.679
B4 1.05
B5 0.797
B6 0.858
B7 0.778
B8 0.897
B9 2
B10 1.13
B11 0.239
B12 0.688
B13 0.876
B14 0.585
B15 0.457
B16 0.654
B17 0.783
B18 0.664

What follows are binders tested against SHP2 N-SH2 domain wild-type in the same assay as above. Conditions: peptide library: pTyr-Var.

Enrichment score, inactive:
B1 0.606
B2 0.541
B3 1.18
B4 1.09
B5 0.905
B6 1.03
B7 1.12
B8 1.13
B9 1.9
B10 1.24
B11 0.32
B12 0.835
B13 0.712
B14 0.757
B15 0.44
B16 0.86
B17 0.76
B18 0.494
